In US7592316B2, “Peptides as NS3-serine protease inhibitors of hepatitis C virus” (Schering Corporation, priority 2000, dated 2009):
pKi: −log10 of the molar value. *1 amine or outer side, *2 acyl side, *3 side chain or, on linkers, in order; H or OH if unused. Where a SMILES comes first, the peptide text is derived from it. [ ]: non-standard residue; d: D form. The star is where a group is joined. ξ: configuration not given here. ξ(3-Amino-2-oxopentanoyl) = CCC(N[*:1])C(=O)C(=O)[*:2]; Pro(3S,4R-CMe2) = CC1(C)[C@H]2[C@@H](C(=O)O)NC[C@H]21; ξLeu(ψCOCO) = CC(C)CC(N[*:1])C(=O)C(=O)[*:2]; X58 = O=C(O)c1c(F)c(F)c(F)c(C(=O)*)c1F; X70 = O=C(c1ccc(C(F)(F)F)cc1C(F)(F)F)*; ξPhg(3-Cl) = NC(C(=O)O)c1cccc(Cl)c1; X4 = CCCCC(N[*:1])C(=O)C(=O)[*:2]; Hyp = O=C(O)[C@@H]1C[C@@H](O)CN1; X2 = CCCC(N[*:1])C(=O)C(=O)[*:2]; X61 = O=C(O)[C@@H]1CCCCC1C(=O)*; Aad = N[C@@H](CCCC(=O)O)C(=O)O; dPhg = N[C@@H](C(=O)O)c1ccccc1; X55 = O=C(c1ccccc1Oc1ccccc1)*; Chg = N[C@H](C(=O)O)C1CCCCC1; Phg = N[C@H](C(=O)O)c1ccccc1; Tle = CC(C)(C)[C@H](N)C(=O)O; X59 = NC(=O)c1ccccc1C(=O)*; X60 = CC(CC(=O)*)c1ccccc1; X66 = O=C(C1CC1c1ccccc1)*; ξChg = NC(C(=O)O)C1CCCCC1; ξPhg = NC(C(=O)O)c1ccccc1; Carboxymethyl = O=C(O)C*; X65 = CC1CCC(CC(=O)*)CC1; X64 = COc1ccccc1C(=O)*; X27 = O=C(OC1CCCCC1)*; X53 = CC1CCCCC1C(=O)*; ξNle = CCCCC(N)C(=O)O; X68 = CCCS(=O)(=O)*; X69 = CCC(C)OC(=O)*; Bn = c1ccc(C*)cc1; OtBu = CC(C)(C)O*; tBu = CC(C)(C)*; MEM = COCCOC*

Molecular target: HCV NS3/NS4A protease (strain 1a) (Hepatitis C virus genotype 1a, UniProt P27958)
Assay: biochemical
Conditions: Compounds prepared by Solid Phase Synthesis, Table 3; read-out: Ki* CLASS

`CCCC(NC(=O)[C@@H]1C[C@@H](OCc2ccccc2)CN1C(=O)C(NC(=O)C1CCCCC1C)C1CCCCC1)C(=O)C(=O)NCC(=O)NC(C(N)=O)c1ccccc1` (some centres unmarked) (X53-[ξChg][Hyp](Bn)[X2]G[ξPhg]-NH2) and `CCCCC(NC(=O)[C@@H]1C[C@@H](OCc2ccccc2)CN1C(=O)C(NC(=O)C1CCCCC1C)C1CCCCC1)C(=O)C(=O)NCC(=O)NC(C(N)=O)c1ccccc1` (some centres unmarked) (X53-[ξChg][Hyp](Bn)[X4]G[ξPhg]-NH2) fall in the same range of pKi: 6.00 to 7.00 for the first, 6.00 to 7.00 for the second.

`CCCC(NC(=O)[C@@H]1C[C@@H](OCc2ccccc2)CN1C(=O)C(NC(=O)c1ccccc1Oc1ccccc1)C1CCCCC1)C(=O)C(=O)NCC(=O)NC(C(N)=O)c1ccccc1` (some centres unmarked) (X55-[ξChg][Hyp](Bn)[X2]G[ξPhg]-NH2) and `CCCCC(NC(=O)[C@@H]1C[C@@H](OCc2ccccc2)CN1C(=O)C(NC(=O)c1ccccc1Oc1ccccc1)C1CCCCC1)C(=O)C(=O)NCC(=O)NC(C(N)=O)c1ccccc1` (some centres unmarked) (X55-[ξChg][Hyp](Bn)[X4]G[ξPhg]-NH2) cannot be ordered by pKi: less than 6.00 for the first, less than 6.00 for the second.

First: CCCC(NC(=O)[C@@H]1C[C@@H](OC(C)(C)C)CN1C(=O)[C@@H](NC(=O)c1c(F)c(F)c(F)c(C(=O)O)c1F)C1CCCCC1)C(=O)C(=O)NCC(=O)NC(C(N)=O)c1cccc(Cl)c1 (some centres unmarked) (X58-[Chg][Hyp](tBu)[X2]G[ξPhg(3-Cl)]-NH2)
Second: CC(C)CC(NC(=O)[C@@H]1C[C@@H](OC(C)(C)C)CN1C(=O)[C@@H](NC(=O)c1c(F)c(F)c(F)c(C(=O)O)c1F)C1CCCCC1)C(=O)C(=O)NCC(=O)N[C@H](C(N)=O)c1ccccc1 (some centres unmarked) (X58-[Chg][Hyp](tBu)[ξLeu(ψCOCO)]G[Phg]-NH2)
The pKi of the first is higher: 6.00 to 7.00 for the first, less than 6.00 for the second. The first binds more tightly here.

Compared with `CCCC(NC(=O)[C@@H]1C[C@@H](OCc2ccccc2)CN1C(=O)[C@H](CCCC(=O)OC(C)(C)C)NC(=O)c1ccccc1C(N)=O)C(=O)C(=O)NCC(=O)N[C@H](C(N)=O)c1ccccc1` (some centres unmarked) (X59-[Aad](OtBu)[Hyp](Bn)[X2]G[Phg]-NH2), `CCCC(NC(=O)[C@@H]1C[C@@H](OCc2ccccc2)CN1C(=O)[C@H](CCCC(=O)O)NC(=O)c1ccccc1C(N)=O)C(=O)C(=O)NCC(=O)N[C@H](C(N)=O)c1ccccc1` (some centres unmarked) (X59-[Aad][Hyp](Bn)[X2]G[Phg]-NH2) is higher in pKi: less than 6.00 for the first, 6.00 to 7.00 for the second. The second binds more tightly here.

`CCCC(NC(=O)[C@@H]1C[C@@H](OC(C)(C)C)CN1C(=O)[C@@H](NC(=O)c1ccccc1C(N)=O)C1CCCCC1)C(=O)C(=O)NCC(=O)N[C@H](C(N)=O)c1ccccc1` (some centres unmarked) (X59-[Chg][Hyp](tBu)[X2]G[Phg]-NH2) and `CCC(NC(=O)[C@@H]1C[C@@H](OC(C)(C)C)CN1C(=O)[C@@H](NC(=O)c1ccccc1C(N)=O)C1CCCCC1)C(=O)C(=O)NCC(=O)N[C@H](C(N)=O)c1ccccc1` (some centres unmarked) (X59-[Chg][Hyp](tBu)[ξ(3-Amino-2-oxopentanoyl)]G[Phg]-NH2) fall in the same range of pKi: 6.00 to 7.00 for the first, 6.00 to 7.00 for the second.

`CCCC(NC(=O)[C@@H]1C[C@@H](OCc2ccccc2)CN1C(=O)C(NC(=O)c1ccccc1C(N)=O)C1CCCCC1)C(=O)C(=O)NCC(=O)N[C@@H](C(N)=O)c1ccccc1` (some centres unmarked) (X59-[ξChg][Hyp](Bn)[X2]G[dPhg]-NH2) and `CCCCC(NC(=O)[C@@H]1C[C@@H](OCc2ccccc2)CN1C(=O)C(NC(=O)c1ccccc1OC)C1CCCCC1)C(=O)C(=O)NCC(=O)NC(C(N)=O)c1ccccc1` (some centres unmarked) (X64-[ξChg][Hyp](Bn)[X4]G[ξPhg]-NH2) cannot be ordered by pKi: less than 6.00 for the first, less than 6.00 for the second.

`CCCCC(NC(=O)CNC(=O)C(=O)C(CCC)NC(=O)[C@@H]1C[C@@H](OCc2ccccc2)CN1C(=O)C(NC(=O)CC(C)c1ccccc1)C1CCCCC1)C(N)=O` (some centres unmarked) (X60-[ξChg][Hyp](Bn)[X2]G[ξNle]-NH2) and `CCCCC(NC(=O)CNC(=O)C(=O)C(CCC)NC(=O)[C@@H]1C[C@@H](OCc2ccccc2)CN1C(=O)C(NC(=O)C1CC1c1ccccc1)C1CCCCC1)C(N)=O` (some centres unmarked) (X66-[ξChg][Hyp](Bn)[X2]G[ξNle]-NH2) cannot be ordered by pKi: less than 6.00 for the first, less than 6.00 for the second.

First: CCCCC(NC(=O)CNC(=O)C(=O)C(CCC)NC(=O)[C@@H]1C[C@@H](OCOCCOC)CN1C(=O)C(NC(=O)C1CCCC[C@H]1C(=O)O)C1CCCCC1)C(N)=O (some centres unmarked) (X61-[ξChg][Hyp](MEM)[X2]G[ξNle]-NH2)
Second: CCCCC(NC(=O)CNC(=O)C(=O)C(CCC)NC(=O)[C@@H]1C[C@@H](OCC(=O)O)CN1C(=O)C(NC(=O)CC1CCC(C)CC1)C1CCCCC1)C(N)=O (some centres unmarked) (X65-[ξChg][Hyp](Carboxymethyl)[X2]G[ξNle]-NH2)
The pKi of the first is higher: 6.00 to 7.00 for the first, less than 6.00 for the second. The first binds more tightly here.

`CCCCC(NC(=O)[C@@H]1C[C@@H](OC(C)(C)C)CN1C(=O)[C@@H](NS(=O)(=O)CCC)C(C)C)C(=O)C(=O)NCC(=O)N[C@H](C(N)=O)c1ccccc1` (some centres unmarked) (X68-V[Hyp](tBu)[X4]G[Phg]-NH2) and `CCCC(NC(=O)[C@@H]1C[C@@H](OCc2ccccc2)CN1C(=O)C(NC(=O)c1ccc(C(F)(F)F)cc1C(F)(F)F)C1CCCCC1)C(=O)C(=O)NCC(=O)N[C@@H](C(N)=O)c1ccccc1` (some centres unmarked) (X70-[ξChg][Hyp](Bn)[X2]G[dPhg]-NH2) cannot be ordered by pKi: less than 6.00 for the first, less than 6.00 for the second.

Same assay, conditions: Table 5; HCV NS3/NS4A protease, spectrophotometric assay, 30° C., pH 6.5; read-out: Ki* Range

`CCCCC(NC(=O)[C@@H]1[C@H]2[C@@H](CN1C(=O)[C@@H](NC(=O)OC1CCCCC1)C(C)(C)C)C2(C)C)C(=O)C(=O)NCC(=O)N[C@H](C(=O)N(C)C)c1ccccc1` (stereo partly drawn) (X27-[Tle][Pro(3S,4R-CMe2)][X4]G[Phg]-NMe2) and `CCCCC(NC(=O)[C@@H]1[C@H]2[C@@H](CN1C(=O)[C@@H](NC(=O)OC(C)CC)C(C)(C)C)C2(C)C)C(=O)C(=O)NCC(=O)N[C@H](C(=O)N(C)C)c1ccccc1` (stereo partly drawn) (X69-[Tle][Pro(3S,4R-CMe2)][X4]G[Phg]-NMe2) fall in the same range of pKi: 7.00 to 9.00 for the first, 7.00 to 9.00 for the second.
